From paper PMC4930772, “Crystal structure of a PP2A B56-BubR1 complex and its implications for PP2A substrate recruitment and localization” (Protein & Cell, 2016)

Target: human PP2A B56γ1(30–380) (human, UniProt Q13362-2 in part)
Assay: ITC; B56γ1 in the cell at 0.03 mmol/L, BubR1 protein or peptide at 0.7 mmol/L injected (20 x 1.5 µL); room temperature; 20 mmol/L Tris-HCl pH 8.0, 200 mmol/L NaCl; one-site model
Details: both partners purified

B1: human BubR1([…]) D675A (domain or fragment)
chain: not shown
notes: also called BubR1-D675A; source: E. coli BL21 (DE3), purified the same way as wild type
Kd: 2.06 ± 0.41 µM | dH: -12.6 ± 0.55 kcal/mol | stoichiometry N: 1.09 ± 0.03

B2: human BubR1([…]) I673A (domain or fragment)
chain: not shown
notes: also called BubR1-I673A; source: E. coli BL21 (DE3), purified the same way as wild type
Kd: 4.12 ± 0.33 µM | dH: -7.55 ± 0.21 kcal/mol | stoichiometry N: 1.01 ± 0.02

B3: human BubR1([…]) K667A (domain or fragment)
chain: not shown
notes: also called BubR1-K667A; source: E. coli BL21 (DE3), purified the same way as wild type
Kd: 2.52 ± 0.37 µM | dH: -8.44 ± 0.33 kcal/mol | stoichiometry N: 1.03 ± 0.03

B4: human BubR1([…]) K668A (domain or fragment)
chain: not shown
notes: also called BubR1-K668A; source: E. coli BL21 (DE3), purified the same way as wild type
Kd: 5.65 ± 1 µM | dH: -10.5 ± 1.11 kcal/mol | stoichiometry N: 0.99 ± 0.08

B5: human BubR1([…]) P671A (domain or fragment)
chain: not shown
notes: also called BubR1-P671A; source: E. coli BL21 (DE3), purified the same way as wild type
Kd: 4.08 ± 1.44 µM | dH: -7.51 ± 0.88 kcal/mol | stoichiometry N: 1.1 ± 0.1

B6: human BubR1([…]) R677A (domain or fragment)
chain: not shown
notes: also called BubR1-R677A; source: E. coli BL21 (DE3), purified the same way as wild type
Kd: 5.85 ± 1.72 µM | dH: -6.08 ± 0.83 kcal/mol | stoichiometry N: 1.06 ± 0.11

B7: human BubR1([…]) S670A (domain or fragment)
chain: not shown
notes: also called BubR1-S670A; source: E. coli BL21 (DE3), purified the same way as wild type
Kd: 2.34 ± 0.63 µM | dH: -7.29 ± 0.5 kcal/mol | stoichiometry N: 1.06 ± 0.05

B8: human BubR1([…]) S676A (domain or fragment)
chain: not shown
notes: also called BubR1-S676A; source: E. coli BL21 (DE3), purified the same way as wild type
Kd: 4.17 ± 0.75 µM | dH: -10.9 ± 0.64 kcal/mol | stoichiometry N: 1.07 ± 0.04
